Results as given in paper PMC9911399, “Two distinct binding modes provide the RNA-binding protein RbFox with extraordinary sequence specificity”.
Changes are numbered by the printed parent chain; changes in the protein carry UniProt numbers. Some of the results follow.

T1: RBFOX1 RRM (Homo sapiens, UniProt Q9NWB1 109-208)
T1 sequence: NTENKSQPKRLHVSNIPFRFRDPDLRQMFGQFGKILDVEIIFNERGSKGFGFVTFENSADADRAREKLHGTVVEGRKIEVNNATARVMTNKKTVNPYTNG

B1: GGAUUAG (DNA:RNA)
RNA: GGGAGACCGGAAUUCAGAUUGUCCGGAUUAGUUAAAUCCCGUCGUAGCCACCA
DNA 1: CAATCTGAATTCCGGTCTCCC
DNA 2: TGGTGGCTACGACGGGATT
B2: ACCAGAU (DNA:RNA)
RNA: B1 RNA with G25A, G26C, A27C, U28A, U29G, G31U
DNA 1: CAATCTGAATTCCGGTCTCCC
DNA 2: TGGTGGCTACGACGGGATT
B3: CUCGGCC (DNA:RNA)
RNA: GGGAGACCGGAAUUCAGAUUGUCCCUCGGCCUUAAAUCCCGUCGUAGCCACCA
DNA 1: CAATCTGAATTCCGGTCTCCC
DNA 2: TGGTGGCTACGACGGGATT
B4: AUGGGAG (DNA:RNA)
RNA: B3 RNA with C25A, C27G, C30A, C31G
DNA 1: CAATCTGAATTCCGGTCTCCC
DNA 2: TGGTGGCTACGACGGGATT
B5: UCCUCUA (DNA:RNA)
RNA: B3 RNA with C25U, U26C, G28U, G29C, C30U, C31A
DNA 1: CAATCTGAATTCCGGTCTCCC
DNA 2: TGGTGGCTACGACGGGATT
B6: CCACGUA (DNA:RNA)
RNA: B3 RNA with U26C, C27A, G28C, C30U, C31A
DNA 1: CAATCTGAATTCCGGTCTCCC
DNA 2: TGGTGGCTACGACGGGATT
B7: UCUGGGC (DNA:RNA)
RNA: B3 RNA with C25U, U26C, C27U, C30G
DNA 1: CAATCTGAATTCCGGTCTCCC
DNA 2: TGGTGGCTACGACGGGATT
B8: CGCACCA (DNA:RNA)
RNA: B3 RNA with U26G, G28A, G29C, C31A
DNA 1: CAATCTGAATTCCGGTCTCCC
DNA 2: TGGTGGCTACGACGGGATT
B9: UCCUACG (DNA:RNA)
RNA: B3 RNA with C25U, U26C, G28U, G29A, C31G
DNA 1: CAATCTGAATTCCGGTCTCCC
DNA 2: TGGTGGCTACGACGGGATT
B10: GAUAUAC (DNA:RNA)
RNA: B1 RNA with G26A, A27U, U28A, G31C
DNA 1: CAATCTGAATTCCGGTCTCCC
DNA 2: TGGTGGCTACGACGGGATT
B11: AGCGUGG (DNA:RNA)
RNA: B1 RNA with G25A, A27C, U28G, A30G
DNA 1: CAATCTGAATTCCGGTCTCCC
DNA 2: TGGTGGCTACGACGGGATT
B12: GCAAAUU (DNA:RNA)
RNA: B1 RNA with G26C, U28A, U29A, A30U, G31U
DNA 1: CAATCTGAATTCCGGTCTCCC
DNA 2: TGGTGGCTACGACGGGATT
B13: UUAGUCU (DNA:RNA)
RNA: B3 RNA with C25U, C27A, G29U, C31U
DNA 1: CAATCTGAATTCCGGTCTCCC
DNA 2: TGGTGGCTACGACGGGATT
B14: GCUGCCU (DNA:RNA)
RNA: B3 RNA with C25G, U26C, C27U, G29C, C31U
DNA 1: CAATCTGAATTCCGGTCTCCC
DNA 2: TGGTGGCTACGACGGGATT
B15: CACUCGC (DNA:RNA)
RNA: B3 RNA with U26A, G28U, G29C, C30G
DNA 1: CAATCTGAATTCCGGTCTCCC
DNA 2: TGGTGGCTACGACGGGATT
B16: GAGCCAA (DNA:RNA)
RNA: B1 RNA with G26A, A27G, U28C, U29C, G31A
DNA 1: CAATCTGAATTCCGGTCTCCC
DNA 2: TGGTGGCTACGACGGGATT
B17: GGGGGGC (DNA:RNA)
RNA: B3 RNA with C25G, U26G, C27G, C30G
DNA 1: CAATCTGAATTCCGGTCTCCC
DNA 2: TGGTGGCTACGACGGGATT
B18: ACGAUCU (DNA:RNA)
RNA: B3 RNA with C25A, U26C, C27G, G28A, G29U, C31U
DNA 1: CAATCTGAATTCCGGTCTCCC
DNA 2: TGGTGGCTACGACGGGATT
B19: UUAACCA (DNA:RNA)
RNA: B3 RNA with C25U, C27A, G28A, G29C, C31A
DNA 1: CAATCTGAATTCCGGTCTCCC
DNA 2: TGGTGGCTACGACGGGATT
B20: AUAACGA (DNA:RNA)
RNA: B3 RNA with C25A, C27A, G28A, G29C, C30G, C31A
DNA 1: CAATCTGAATTCCGGTCTCCC
DNA 2: TGGTGGCTACGACGGGATT
B21: GCUGCCC (DNA:RNA)
RNA: B3 RNA with C25G, U26C, C27U, G29C
DNA 1: CAATCTGAATTCCGGTCTCCC
DNA 2: TGGTGGCTACGACGGGATT
B22: CUGAUCG (DNA:RNA)
RNA: B3 RNA with C27G, G28A, G29U, C31G
DNA 1: CAATCTGAATTCCGGTCTCCC
DNA 2: TGGTGGCTACGACGGGATT
B23: CGCCGCG (DNA:RNA)
RNA: B3 RNA with U26G, G28C, C31G
DNA 1: CAATCTGAATTCCGGTCTCCC
DNA 2: TGGTGGCTACGACGGGATT
B24: CUUAGCU (DNA:RNA)
RNA: B3 RNA with C27U, G28A, C31U
DNA 1: CAATCTGAATTCCGGTCTCCC
DNA 2: TGGTGGCTACGACGGGATT
B25: CUACAUG (DNA:RNA)
RNA: B3 RNA with C27A, G28C, G29A, C30U, C31G
DNA 1: CAATCTGAATTCCGGTCTCCC
DNA 2: TGGTGGCTACGACGGGATT
B26: AAGAGGC (DNA:RNA)
RNA: B3 RNA with C25A, U26A, C27G, G28A, C30G
DNA 1: CAATCTGAATTCCGGTCTCCC
DNA 2: TGGTGGCTACGACGGGATT
B27: AUGUCAU (DNA:RNA)
RNA: B1 RNA with G25A, G26U, A27G, U29C, G31U
DNA 1: CAATCTGAATTCCGGTCTCCC
DNA 2: TGGTGGCTACGACGGGATT
B28: CUAAGGA (DNA:RNA)
RNA: B3 RNA with C27A, G28A, C30G, C31A
DNA 1: CAATCTGAATTCCGGTCTCCC
DNA 2: TGGTGGCTACGACGGGATT
B29: UUGAAAG (DNA:RNA)
RNA: B1 RNA with G25U, G26U, A27G, U28A, U29A
DNA 1: CAATCTGAATTCCGGTCTCCC
DNA 2: TGGTGGCTACGACGGGATT
B30: UUUAGCG (DNA:RNA)
RNA: B3 RNA with C25U, C27U, G28A, C31G
DNA 1: CAATCTGAATTCCGGTCTCCC
DNA 2: TGGTGGCTACGACGGGATT
B31: AGGGCAG (DNA:RNA)
RNA: B1 RNA with G25A, A27G, U28G, U29C
DNA 1: CAATCTGAATTCCGGTCTCCC
DNA 2: TGGTGGCTACGACGGGATT

The binders below were run against T1, RBFOX1 RRM (assay: EMSA; HiTS-Eq, 1 nM pool, 10 min; buffer printed only for the single-RNA assays: 10 mM Tris pH 7.5, 150 mM NaCl, 3.4 mM EDTA, 0.001% NP-40, 30 C). Conditions: tags: His6 N-terminal (pET28a); label: 5' 32P.
How it was run: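 A pool of RNA with 7 randomized nucleotides, 5′-radiolabelled and with DNA-annealed flanks, was equilibrated at 1 nM for 10 min in 50 µL with purified RbFox RRM, wild type or mutant, across increasing protein concentrations. Free RNA was separated by 8% native PAGE, excised, reverse-transcribed, barcoded by PCR and sequenced. Relative association constants were obtained from read-count changes of each RNA species versus the control reaction and normalised to the cognate motif.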

Row | Binder | binding signal
1 | B1 | 0.0127 KA relative to UGCAUGU
2 | B2 | 0.00102 KA relative to UGCAUGU
3 | B3 | 0.0164 KA relative to UGCAUGU
4 | B4 | 0.00848 KA relative to UGCAUGU
5 | B5 | 0.0048 KA relative to UGCAUGU
6 | B6 | 0.00468 KA relative to UGCAUGU
7 | B7 | 0.00557 KA relative to UGCAUGU
8 | B8 | 0.00405 KA relative to UGCAUGU
9 | B9 | 0.00598 KA relative to UGCAUGU
10 | B10 | 0.00528 KA relative to UGCAUGU
11 | B11 | 0.0172 KA relative to UGCAUGU
12 | B12 | 0.00237 KA relative to UGCAUGU
13 | B13 | 0.0121 KA relative to UGCAUGU
14 | B14 | 0.017 KA relative to UGCAUGU
15 | B15 | 0.00439 KA relative to UGCAUGU
16 | B16 | 0.00488 KA relative to UGCAUGU

Row | Binder | binding signal
17 | B17 | 0.0272 KA relative to UGCAUGU
18 | B18 | 0.00593 KA relative to UGCAUGU
19 | B19 | 0.00177 KA relative to UGCAUGU
20 | B20 | 0.00354 KA relative to UGCAUGU
21 | B21 | 0.0161 KA relative to UGCAUGU
22 | B22 | 0.0247 KA relative to UGCAUGU
23 | B23 | 0.00911 KA relative to UGCAUGU
24 | B24 | 0.00703 KA relative to UGCAUGU
25 | B25 | 0.0115 KA relative to UGCAUGU
26 | B26 | 0.00534 KA relative to UGCAUGU
27 | B27 | 0.00445 KA relative to UGCAUGU
28 | B28 | 0.00343 KA relative to UGCAUGU
29 | B29 | 0.0171 KA relative to UGCAUGU
30 | B30 | 0.0118 KA relative to UGCAUGU
31 | B31 | 0.0242 KA relative to UGCAUGU
